Reference: PMC6212790
The other results are listed elsewhere or left out. At the low end of the ranking the order means little.

Each sequence was assayed against T1, GST-Rok (full length) (UniProt O34857) (assay: protein binding microarray). Details: Rok is a gene silencer of Bacillus subtilis; high values mean tight binding; most listed sequences are background and not binding sites; double strand, one strand shown.
T1 sequence: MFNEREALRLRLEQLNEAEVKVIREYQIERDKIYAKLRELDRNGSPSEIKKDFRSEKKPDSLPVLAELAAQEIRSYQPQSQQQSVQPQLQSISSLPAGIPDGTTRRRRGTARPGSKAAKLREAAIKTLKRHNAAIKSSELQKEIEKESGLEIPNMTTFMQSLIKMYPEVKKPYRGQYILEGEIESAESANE
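Note: rank score from −0.5 (least bound) to 0.5 (best bound).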

Sequence | binding signal [E-score]
CGGGTACA | 0.154
GCTTAAGA | -0.025
ACTACCCC | 0.166
ACAAGAGG | -0.162
ACCCACCG | -0.179
CTCATCCC | -0.408
GACCTGTA | -0.234
ACGAAAAT | 0.231
TGACCGAA | 0.0795
CAGGGAAC | -0.0781
ATACCACC | 0.127
TATCAGCA | 0.0489
ACCCGGCA | -0.208
ATCCGTTC | -0.0558
CGTTACGA | 0.195
TCCGACAA | -0.0727
TAGCGCCA | 0.0857

Sequence | binding signal [E-score]
AGTCTCAG | -0.0863
ATTAAAAT | 0.262
CCCCTCAG | -0.462
ATCACGAA | 0.125
AACAATTA | 0.32
CTCCATTA | 0.0996
CCCCGGGG | -0.495
GATCTGTA | 0.034
TAGGGTCA | 0.0186
ATTCTCCC | -0.0412
CCTGCACA | -0.213
GGCTCTTA | -0.257
ACTCTTAC | 0.06
CGCAGGAG | -0.164
ACGGGTTG | -0.231
ACTAACGC | 0.212
GATAACCA | -0.0372
